Data taken from the supplement of paper PMC8285479.
Where a name gives a salt, the structure may show the parent alone. ± gives the standard deviation of the averaged measurements. In all, about 1,900 compounds were measured (“normalised cell viability (NPI; 0 = phenylarsine oxide control, 1 = DMSO control)”: median about 1, lowest 2% from about 0.039 on). The list shows a part of the results.

Tested on: NCI-H1944
Assay: normalised cell viability (NPI; 0 = phenylarsine oxide control, 1 = DMSO control) (fraction of DMSO control); NCI-H1944 is a non-small cell lung cancer line; higher = more viable cells (less compound toxicity)
Conditions: 6 days
[1] = glucocorticoid arm: hydrocortisone 2.75 uM co-treatment, compound 1 µM
[2] = glucocorticoid arm: hydrocortisone 2.75 uM co-treatment, compound 5 µM
[3] = glucocorticoid arm: hydrocortisone 2.75 uM pre-treated 2 days and continued, compound 1 µM
[4] = glucocorticoid arm: hydrocortisone 2.75 uM pre-treated 2 days and continued, compound 5 µM
[5] = glucocorticoid arm: vehicle, compound 1 µM
[6] = glucocorticoid arm: vehicle, compound 5 µM
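Also: CTB read-out in 384-well plates, mean of triplicate wells, normalised per plate against 1 µM phenylarsine oxide and 0.1% DMSO, compounds added 24 h after seeding.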

## N#Cc1c(O)c2c(-c3ccc(-c4ccccc4O)cc3)csc2[nH]c1=O
[1]
  normalised cell viability: 0.982 ± 0.01
[2]
  normalised cell viability: 0.999 ± 0.01
[3]
  normalised cell viability: 0.986 ± 0.0053
[4]
  normalised cell viability: 0.9907 ± 0.009
[5]
  normalised cell viability: 1.01 ± 0.01
[6]
  normalised cell viability: 1.01

## CCCCC(=O)O[C@H]1CC[C@H]2[C@@H]3CCc4cc(O)ccc4[C@H]3CC[C@]12C [Estradiol valerate]
[1]
  normalised cell viability: 1.02 ± 0.02
[2]
  normalised cell viability: 1.04 ± 0.01
[3]
  normalised cell viability: 1.02 ± 0.01
[4]
  normalised cell viability: 1.04 ± 0.023
[5]
  normalised cell viability: 1.01 ± 0.01
[6]
  normalised cell viability: 1.01

## O=c1cc(-c2cccc3c2Sc2ccccc2S3)oc(N2CCOCC2)c1
[1]
  normalised cell viability: 0.994 ± 0.01
[2]
  normalised cell viability: 1.01 ± 0.017
[3]
  normalised cell viability: 0.996 ± 0.026
[4]
  normalised cell viability: 0.972 ± 0.019
[5]
  normalised cell viability: 1.023 ± 0.0058
[6]
  normalised cell viability: 1.037 ± 0.0058

## Oc1ccc([C@H]2COc3cc(O)ccc3C2)cc1 [Equol]
[1]
  normalised cell viability: 0.996 ± 0.026
[2]
  normalised cell viability: 0.982 ± 0.034
[3]
  normalised cell viability: 0.993 ± 0.011
[4]
  normalised cell viability: 1 ± 0.01
[5]
  normalised cell viability: 0.987 ± 0.011
[6]
  normalised cell viability: 0.9913 ± 0.0085

## Fc1ccc(C(c2ccc(F)cc2)N2CCN(C/C=C/c3ccccc3)CC2)cc1 [Flunarizine dihydrochloride]
[1]
  normalised cell viability: 1.01 ± 0.018
[2]
  normalised cell viability: 0.983 ± 0.014
[3]
  normalised cell viability: 1.01 ± 0.011
[4]
  normalised cell viability: 1.05 ± 0.026
[5]
  normalised cell viability: 1.02
[6]
  normalised cell viability: 1.017 ± 0.0058

## Nc1nc(Cl)nc2c1ncn2[C@H]1C[C@H](O)[C@@H](CO)O1 [Cladribine]
[1]
  normalised cell viability: 0.0575 ± 0.013
[2]
  normalised cell viability: 0.0436 ± 0.0033
[3]
  normalised cell viability: 0.169 ± 0.0085
[4]
  normalised cell viability: 0.1867 ± 0.0011
[5]
  normalised cell viability: 0.0131 ± 0.0023
[6]
  normalised cell viability: 0.0121 ± 0.0031

## COc1cccc2c1[C@@H]1CN(CCCCn3c(=O)[nH]c4c(sc5ncc(-c6ccccc6)nc54)c3=O)C[C@@H]1CO2 [Fiduxosin hydrochloride]
[1]
  normalised cell viability: 1.013 ± 0.0058
[2]
  normalised cell viability: 1.02 ± 0.015
[3]
  normalised cell viability: 1.01 ± 0.01
[4]
  normalised cell viability: 1.05 ± 0.036
[5]
  normalised cell viability: 1.017 ± 0.0058
[6]
  normalised cell viability: 1.01 ± 0.015

## COc1cccc2c1C(=O)c1c(O)c3c(c(O)c1C2=O)C[C@@](O)(C(=O)CO)C[C@@H]3O[C@H]1C[C@H](N)[C@H](O)[C@H](C)O1 [Doxorubicin hydrochloride; 4'-Epiadriamycin; Doxorubicin HCl]
[1]
  normalised cell viability: 0.454 ± 0.36
[2]
  normalised cell viability: 0.288 ± 0.3
[3]
  normalised cell viability: 0.754 ± 0.26
[4]
  normalised cell viability: 0.484 ± 0.48
[5]
  normalised cell viability: 0.178 ± 0.17
[6]
  normalised cell viability: 0.129 ± 0.14

## Cc1cc(C(=O)NOCCO)c(Nc2ccc(I)cc2F)n(C)c1=O
[1]
  normalised cell viability: 0.614 ± 0.018
[2]
  normalised cell viability: 0.565 ± 0.035
[3]
  normalised cell viability: 0.66 ± 0.011
[4]
  normalised cell viability: 0.672 ± 0.037
[5]
  normalised cell viability: 0.286 ± 0.014
[6]
  normalised cell viability: 0.279 ± 0.013

## Cn1cnc2c(NCc3ccccc3)nc(NCCO)nc21 [Olomoucine]
[1]
  normalised cell viability: 1.006 ± 0.0069
[2]
  normalised cell viability: 1.03 ± 0.01
[3]
  normalised cell viability: 1.02 ± 0.01
[4]
  normalised cell viability: 1.08 ± 0.1
[5]
  normalised cell viability: 1.002 ± 0.0072
[6]
  normalised cell viability: 1 ± 0.014

## OCCOCCN1CCN(C2=Nc3ccccc3Sc3ccccc32)CC1 [Quetiapine Fumarate]
[1]
  normalised cell viability: 0.9587 ± 0.0072
[2]
  normalised cell viability: 0.967 ± 0.038
[3]
  normalised cell viability: 0.983 ± 0.015
[4]
  normalised cell viability: 0.954 ± 0.033
[5]
  normalised cell viability: 0.9927 ± 0.0031
[6]
  normalised cell viability: 0.9833 ± 0.004

## S=C(S)OC1CC2CC1C1CCCC21 [D-609 potassium]
[1]
  normalised cell viability: 1.02 ± 0.01
[2]
  normalised cell viability: 1.03 ± 0.017
[3]
  normalised cell viability: 1.04 ± 0.02
[4]
  normalised cell viability: 1.04 ± 0.01
[5]
  normalised cell viability: 1.03 ± 0.011
[6]
  normalised cell viability: 1.03

## O=[N+]([O-])c1ccc(-c2nc(-c3ccc(F)cc3)c(-c3ccncc3)[nH]2)cc1
[1]
  normalised cell viability: 0.976 ± 0.019
[2]
  normalised cell viability: 0.903 ± 0.014
[3]
  normalised cell viability: 0.9707 ± 0.008
[4]
  normalised cell viability: 0.865 ± 0.019
[5]
  normalised cell viability: 0.996 ± 0.004
[6]
  normalised cell viability: 0.962 ± 0.051

## C[C@]12CCC(=O)C=C1CC[C@@H]1[C@@H]2[C@@H](O)C[C@@]2(C)[C@H]1CC[C@]2(O)C(=O)CO [Hydrocortisone]
[1]
  normalised cell viability: 0.9983 ± 0.0029
[2]
  normalised cell viability: 0.986 ± 0.011
[3]
  normalised cell viability: 0.979 ± 0.037
[4]
  normalised cell viability: 1 ± 0.015
[5]
  normalised cell viability: 0.932 ± 0.002
[6]
  normalised cell viability: 0.815 ± 0.018

## CNCCCC1c2ccccc2C=Cc2ccccc21 [Protriptyline hydrochloride]
[1]
  normalised cell viability: 0.992 ± 0.0072
[2]
  normalised cell viability: 0.951 ± 0.012
[3]
  normalised cell viability: 1.01 ± 0.023
[4]
  normalised cell viability: 1.01 ± 0.013
[5]
  normalised cell viability: 0.9823 ± 0.0038
[6]
  normalised cell viability: 0.9793 ± 0.0061
